In US8280710B2, “Method for determining thermal stability of collagen or collagen-like peptide” (University of Medicine and Dentistry of New Jersey, priority 2005, dated 2012):
At least one peptide structure holds a part that was inferred or is arguable (an end, a ring closure or a residue). Non-standard residues stand in square brackets, D forms with d. Residues, ends and D or L forms follow the SMILES beside them. Hyp = O=C(O)[C@@H]1C[C@@H](O)CN1

Key:
[1] = peptide of Table 3, defined standard conditions
Description: The propensity measurements for all 20 amino acid residues in the Xaa1 position in a Gly-Xaa1-Hyp context and all 20 amino acid residues in the Xaa2 position in a Gly-Pro-Xaa2 context were determined by measuring thermal stability of host-guest peptides (Persikov, et al. (2000) supra).
The Tm values of all host-guest peptides were measured under a set of standard conditions, with c=1 mg/ml in phosphate-buffered saline, pH 7.0, and with a heating rate average of 0.1° C./minute (Persikov, et al. (2004) supra).

[2] = Method for predicting global Tm of collagen peptides from amino acid sequence; conditions: observed minus predicted, peptides of Table 3
Description: The global thermal stability of homotrimeric triple helical peptides with length of at least 6 tripeptide units and, in most cases, containing 10 tripeptide units was determined as follows.
For the total number of triplets n in a given peptide, the base Tm^0(n) for (Pro-Hyp-Gly) or (Pro-Pro-Gly)n was calculated from the length dependence (Equation 1), including any effect of blocking groups;
The melting temperature value was decreased for every triplet in the sequence that was not Gly-Pro-Hyp, subtracting a value of ΔTm^GXY (Table 1). The N-terminal and C-terminal tripeptide units were excluded from the calculation due to the staggering of the chains and the disorder for the peptide ends (Bella et al. (1994) supra; Li, et al. (1993) Biochemistry 32:7377-7387; Kramer, et al. (2001) J. Mol. Biol. 301:1191-1205).
The resulting value for the peptide melting temperature was adjusted using the ΔTm^int values for interactions between neighboring tripeptides (Table 2).
The method was formulated as follows.
To extrapolate the dependence of the Tm of the host peptides on peptide length, the experimental values for (Pro-Hyp-Gly)n and (Pro-Pro-Gly)n versus n, where n is the number of tripeptide units, were fit to the exponential decay function
[formula] where Tm^0(n) is defined as the base thermal stability of the repeating polytripeptide standard, Tm^max is the maximum melting temperature, and the constant n0 represents the length of the repeating peptide with Tm=0.

Row | SMILES | Tm^obs [1] [°C] | ΔTm [2] [°C]
1 | CC(=O)NCC(=O)N[C@@H](CCC(=O)O)C(=O)N[C@@H](CCCNC(=N)N)C(=O)NCC(=O)N1CCC[C@H]1C(=O)N1C[C@H](O)C[C@H]1C(=O)NCC(=O)N[C@@H](CC(C)C)C(=O)N[C@@H](C)C(=O)NCC(=O)N[C@@H](C)C(=O)N1C[C@H](O)C[C@H]1C(=O)NCC(=O)N[C@@H](CC(C)C)C(=O)N[C@@H](CCCNC(=N)N)C(=O)NCC(=O)NCC(=O)N[C@@H](C)C(=O)NCC(=O)N1CCC[C@H]1C(=O)N1C[C@H](O)C[C@H]1C(=O)NCC(=O)N1CCC[C@H]1C(=O)N1C[C@H](O)C[C@H]1C(=O)NCC(=O)N1CCC[C@H]1C(=O)N1C[C@H](O)C[C@H]1C(=O)NCC(=O)N1CCC[C@H]1C(=O)N1C[C@H](O)C[C@H]1C(=O)NCC(=O)N[C@H](C(=O)O)C(C)C [T3-514, Ac-GER-GPO-GLA-GAO-GLR-GGA-(GPO)4-GV] (Ac-GERGP[Hyp]GLAGA[Hyp]GLRGGAGP[Hyp]GP[Hyp]GP[Hyp]GP[Hyp]GV-OH) | 16.5 | 9.6
2 | CC(=O)NCC(=O)N[C@@H](CC(C)C)C(=O)N[C@@H](C)C(=O)NCC(=O)N[C@@H](C)C(=O)N1C[C@H](O)C[C@H]1C(=O)NCC(=O)N[C@@H](CC(C)C)C(=O)N[C@@H](CCCNC(=N)N)C(=O)NCC(=O)NCC(=O)N[C@@H](C)C(=O)NCC(=O)N1CCC[C@H]1C(=O)N1C[C@H](O)C[C@H]1C(=O)NCC(=O)N1CCC[C@H]1C(=O)N[C@@H](CCC(=O)O)C(=O)NCC(=O)N1CCC[C@H]1C(=O)N1C[C@H](O)C[C@H]1C(=O)NCC(=O)N1CCC[C@H]1C(=O)N1C[C@H](O)C[C@H]1C(=O)NCC(=O)N1CCC[C@H]1C(=O)N1C[C@H](O)C[C@H]1C(=O)NCC(=O)N1CCC[C@H]1C(=O)N1C[C@H](O)C[C@H]1C(=O)NCC(=O)N[C@H](C(=O)O)C(C)C [T3-520, Ac-GLA-GAO-GLR-GGA-GPO-GPE-(GPO)4-GV] (Ac-GLAGA[Hyp]GLRGGAGP[Hyp]GPEGP[Hyp]GP[Hyp]GP[Hyp]GP[Hyp]GV-OH) | 17.5 | 2.1
3 | CC(=O)NCC(=O)N[C@@H](CC(=O)O)C(=O)N[C@@H](C)C(=O)NCC(=O)N[C@@H](C)C(=O)N1C[C@H](O)C[C@H]1C(=O)NCC(=O)N[C@@H](CCC(=O)O)C(=O)N[C@@H](CCCNC(=N)N)C(=O)NCC(=O)N1CCC[C@H]1C(=O)N1C[C@H](O)C[C@H]1C(=O)NCC(=O)N[C@@H](CC(C)C)C(=O)N[C@@H](C)C(=O)NCC(=O)N[C@@H](C)C(=O)N1C[C@H](O)C[C@H]1C(=O)NCC(=O)N1CCC[C@H]1C(=O)N1C[C@H](O)C[C@H]1C(=O)NCC(=O)N1CCC[C@H]1C(=O)N1C[C@H](O)C[C@H]1C(=O)NCC(=O)N1CCC[C@H]1C(=O)N1C[C@H](O)C[C@H]1C(=O)NCC(=O)N1CCC[C@H]1C(=O)N1C[C@H](O)C[C@H]1C(=O)NCC(=O)N[C@H](C(=O)O)C(C)C [T3-508, Ac-GDA-GAO-GER-GPO-GLA-GAO-(GPO)4-GV] (Ac-GDAGA[Hyp]GERGP[Hyp]GLAGA[Hyp]GP[Hyp]GP[Hyp]GP[Hyp]GP[Hyp]GV-OH) | 23.2 | −3.4
4 | CC(=O)NCC(=O)N[C@@H](C)C(=O)N1C[C@H](O)C[C@H]1C(=O)NCC(=O)N[C@@H](CCC(=O)O)C(=O)N[C@@H](CCCNC(=N)N)C(=O)NCC(=O)N1CCC[C@H]1C(=O)N1C[C@H](O)C[C@H]1C(=O)NCC(=O)N[C@@H](CC(C)C)C(=O)N[C@@H](C)C(=O)NCC(=O)N[C@@H](C)C(=O)N1C[C@H](O)C[C@H]1C(=O)NCC(=O)N[C@@H](CC(C)C)C(=O)N[C@@H](CCCNC(=N)N)C(=O)NCC(=O)N1CCC[C@H]1C(=O)N1C[C@H](O)C[C@H]1C(=O)NCC(=O)N1CCC[C@H]1C(=O)N1C[C@H](O)C[C@H]1C(=O)NCC(=O)N1CCC[C@H]1C(=O)N1C[C@H](O)C[C@H]1C(=O)NCC(=O)N1CCC[C@H]1C(=O)N1C[C@H](O)C[C@H]1C(=O)NCC(=O)N[C@H](C(=O)O)C(C)C [T3-511, Ac-GAO-GER-GPO-GLA-GAO-GLR-(GPO)4-GV] (Ac-GA[Hyp]GERGP[Hyp]GLAGA[Hyp]GLRGP[Hyp]GP[Hyp]GP[Hyp]GP[Hyp]GV-OH) | 25.9 | 4.6
5 | NCCCC[C@H](NC(=O)[C@H](CCC(=O)O)NC(=O)CNC(=O)[C@H](CCCCN)NC(=O)[C@H](CCC(N)=O)NC(=O)CNC(=O)[C@H](CCCCN)NC(=O)[C@@H]1CCCN1C(=O)CNC(=O)[C@@H]1C[C@@H](O)CN1C(=O)[C@@H]1CCCN1C(=O)CNC(=O)[C@@H]1C[C@@H](O)CN1C(=O)[C@@H]1CCCN1C(=O)CNC(=O)[C@@H]1C[C@@H](O)CN1C(=O)[C@@H]1CCCN1)C(=O)NCC(=O)N1CCC[C@H]1C(=O)N1C[C@H](O)C[C@H]1C(=O)NCC(=O)N1CCC[C@H]1C(=O)N1C[C@H](O)C[C@H]1C(=O)NCC(=O)N1CCC[C@H]1C(=O)N1C[C@H](O)C[C@H]1C(=O)NCC(=O)N1CCC[C@H]1C(=O)N1C[C@H](O)C[C@H]1C(=O)NCC(=O)O [MSR-1, PO-(GPO)2-GPK-GQK-GEK-(GPO)4-G] (H-P[Hyp]GP[Hyp]GP[Hyp]GPKGQKGEKGP[Hyp]GP[Hyp]GP[Hyp]GP[Hyp]G-OH) | 30.0 | 
6 | C[C@@H](O)[C@H](NC(=O)CNC(=O)[C@H](CC(=O)O)NC(=O)[C@H](CCCNC(=N)N)NC(=O)CNC(=O)[C@H](CC(=O)O)NC(=O)[C@H](CCCCN)NC(=O)CNC(=O)[C@@H]1C[C@@H](O)CN1C(=O)[C@H](Cc1ccccc1)NC(=O)CN)C(=O)N[C@@H](CCCCN)C(=O)NCC(=O)N[C@@H](CCC(=O)O)C(=O)N[C@@H](CCCCN)C(=O)NCC(=O)N[C@@H](CCC(=O)O)C(=O)N1C[C@H](O)C[C@H]1C(=O)NCC(=O)N1CCC[C@H]1C(=O)N1C[C@H](O)C[C@H]1C(=O)NCC(=O)N1CCC[C@H]1C(=O)N1C[C@H](O)C[C@H]1C(=O)NCC(=O)N1CCC[C@H]1C(=O)N1C[C@H](O)C[C@H]1C(=O)NCC(=O)N1CCC[C@H]1C(=O)N1C[C@H](O)C[C@H]1C(=O)NCC(=O)N[C@@H](Cc1ccc(O)cc1)C(=O)O [MBL 45-61, GFO-GKD-GRD-GTK-GEK-GEO-(GPO)4-GY] (H-GF[Hyp]GKDGRDGTKGEKGE[Hyp]GP[Hyp]GP[Hyp]GP[Hyp]GP[Hyp]GY-OH) | 17.9 | −9.1
7 | CC(=O)NCC(=O)N1CCC[C@H]1C(=O)N1C[C@H](O)C[C@H]1C(=O)NCC(=O)N[C@@H](CC(C)C)C(=O)N[C@@H](C)C(=O)NCC(=O)N[C@@H](C)C(=O)N1C[C@H](O)C[C@H]1C(=O)NCC(=O)N[C@@H](CC(C)C)C(=O)N[C@@H](CCCNC(=N)N)C(=O)NCC(=O)NCC(=O)N[C@@H](C)C(=O)NCC(=O)N1CCC[C@H]1C(=O)N1C[C@H](O)C[C@H]1C(=O)NCC(=O)N1CCC[C@H]1C(=O)N1C[C@H](O)C[C@H]1C(=O)NCC(=O)N1CCC[C@H]1C(=O)N1C[C@H](O)C[C@H]1C(=O)NCC(=O)N1CCC[C@H]1C(=O)N1C[C@H](O)C[C@H]1C(=O)NCC(=O)N1CCC[C@H]1C(=O)N1C[C@H](O)C[C@H]1C(=O)NCC(=O)N[C@H](C(=O)O)C(C)C [T3-517, Ac-GPO-GLA-GAO-GLR-GGA-GPO-(GPO)4-GV] (Ac-GP[Hyp]GLAGA[Hyp]GLRGGAGP[Hyp]GP[Hyp]GP[Hyp]GP[Hyp]GP[Hyp]GV-OH) | 15.8 | 8.9
8 | CC(=O)NCC(=O)NCC(=O)N[C@@H](CCCCN)C(=O)NCC(=O)N[C@@H](CC(=O)O)C(=O)N[C@@H](C)C(=O)NCC(=O)N[C@@H](C)C(=O)N1C[C@H](O)C[C@H]1C(=O)NCC(=O)N[C@@H](CCC(=O)O)C(=O)N[C@@H](CCCNC(=N)N)C(=O)NCC(=O)N1CCC[C@H]1C(=O)N1C[C@H](O)C[C@H]1C(=O)NCC(=O)N[C@@H](CC(C)C)C(=O)N[C@@H](C)C(=O)NCC(=O)N1CCC[C@H]1C(=O)N1C[C@H](O)C[C@H]1C(=O)NCC(=O)N1CCC[C@H]1C(=O)N1C[C@H](O)C[C@H]1C(=O)NCC(=O)N1CCC[C@H]1C(=O)N1C[C@H](O)C[C@H]1C(=O)NCC(=O)N1CCC[C@H]1C(=O)N1C[C@H](O)C[C@H]1C(=O)NCC(=O)N[C@H](C(=O)O)C(C)C [T3-505, Ac-GGK-GDA-GAO-GER-GPO-GLA-(GPO)4-GV] (Ac-GGKGDAGA[Hyp]GERGP[Hyp]GLAGP[Hyp]GP[Hyp]GP[Hyp]GP[Hyp]GV-OH) | 20.9 | −4.4
